# Source: paper PMC4336329 (PLoS ONE, 2015)
# Out of some 310,000 compounds screened, about 14,000 (4.5%) showed an effect of 50% or more. The effect is printed as a negative number. Some of the results follow.
# Molecular target: human ether-à-go-go-related gene (hERG) potassium channel (human, UniProt Q12809)
# Assay: primary screen, population patch clamp on CHO cells stably expressing hERG
# 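Further: peak tail current of the secondary pulse compared with the same well before compound.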
# Sequence of human ether-à-go-go-related gene (hERG) potassium channel (Q12809 whole entry, looked up): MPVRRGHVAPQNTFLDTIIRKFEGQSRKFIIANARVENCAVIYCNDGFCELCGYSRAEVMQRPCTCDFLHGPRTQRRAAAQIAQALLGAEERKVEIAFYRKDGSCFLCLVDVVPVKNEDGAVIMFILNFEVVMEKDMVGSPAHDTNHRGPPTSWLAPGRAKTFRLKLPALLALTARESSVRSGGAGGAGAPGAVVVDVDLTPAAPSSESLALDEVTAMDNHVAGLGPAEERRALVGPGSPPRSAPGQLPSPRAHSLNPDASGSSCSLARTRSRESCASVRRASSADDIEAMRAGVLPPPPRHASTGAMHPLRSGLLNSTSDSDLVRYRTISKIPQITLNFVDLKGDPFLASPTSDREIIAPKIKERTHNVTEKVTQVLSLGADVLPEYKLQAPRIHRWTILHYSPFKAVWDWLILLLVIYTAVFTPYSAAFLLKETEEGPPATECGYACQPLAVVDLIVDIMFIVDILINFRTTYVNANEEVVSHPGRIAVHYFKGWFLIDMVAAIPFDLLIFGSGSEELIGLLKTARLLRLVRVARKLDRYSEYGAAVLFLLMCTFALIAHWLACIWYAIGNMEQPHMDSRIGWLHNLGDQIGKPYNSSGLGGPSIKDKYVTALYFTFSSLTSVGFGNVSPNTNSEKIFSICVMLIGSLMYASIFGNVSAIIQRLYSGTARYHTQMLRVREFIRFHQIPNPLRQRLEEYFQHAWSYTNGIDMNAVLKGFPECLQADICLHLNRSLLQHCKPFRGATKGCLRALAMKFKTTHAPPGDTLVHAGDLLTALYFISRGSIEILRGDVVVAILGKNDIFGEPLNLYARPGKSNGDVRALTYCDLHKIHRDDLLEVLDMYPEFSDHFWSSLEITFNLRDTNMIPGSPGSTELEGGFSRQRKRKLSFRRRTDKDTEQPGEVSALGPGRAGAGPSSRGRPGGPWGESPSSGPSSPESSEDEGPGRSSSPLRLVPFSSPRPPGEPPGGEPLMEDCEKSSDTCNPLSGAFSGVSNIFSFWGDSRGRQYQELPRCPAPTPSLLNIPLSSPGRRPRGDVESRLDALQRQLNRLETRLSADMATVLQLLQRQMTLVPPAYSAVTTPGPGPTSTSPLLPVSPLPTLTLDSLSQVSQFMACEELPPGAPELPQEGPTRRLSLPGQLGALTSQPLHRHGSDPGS
row,Structure (SMILES),"hERG current change (%, negative = inhibition) at 10uM [%]"
1,O=C(c1ccc2c(c1)OCO2)N(c1ccc(Br)cc1)C1C=CS(=O)(=O)C1 (stereo not drawn),-32.4
2,Oc1cc(O)cc(/C=C/c2ccc(O)cc2O)c1,10.2
3,COCCN1CN(S(=O)(=O)c2cccc(Cl)c2)c2nc3ccccc3nc21,-27.8
4,COc1ccc(S(=O)(=O)N2CCN(C(=O)c3ccc(NC(C)=O)cc3)CC2)cc1,-1.75
5,COc1ccc(N2C(=O)CC(c3ccccc3)C2=O)cc1 (stereo not drawn),14.3
6,COc1ccc(N2C(=O)C3C4c5ccccc5C(C=Nc5ccc(C)cc5C)(c5ccccc54)C3C2=O)cc1 (stereo not drawn),5.61
7,O=C(Cn1nnc2ccccc2c1=O)Nc1ccc2c(c1)CCC2,-16
8,CCN(CC(=O)Nc1ccc(OC)c(OC)c1)S(=O)(=O)c1ccc(C)cc1,10.4
9,CCC(C(=O)NC1CCCCC1)n1c(SCc2ccc(F)cc2)nc2ccncc21 (stereo not drawn),-9.8
10,O=C(CSCC(=O)Nc1nccs1)Nc1ccccc1,2.45
11,O=C(CCCOc1ccc(Cl)cc1)N1CCCCCC1,-10.1
12,CSc1ccc(S(=O)(=O)NCc2ccc(C)cc2)cc1,-0.0441
13,COc1cccc(NC(=O)N2CCCC2C(=O)NC2CCCC2)c1 (stereo not drawn),-1.51
14,NS(=O)(=O)c1cccc(NC(=S)NC(=O)C23CC4CC(CC(C4)C2)C3)c1,-16.7
15,Cc1ccc(C(C)C)c(OCCCN(C)Cc2ccccc2)c1.O=C(O)C(=O)O,-1.11
16,CCCN(CCC)C(=O)COc1cc(=O)n(CC)c2ccccc12,0.179
17,CCNC(=O)NC(=O)C(C)Sc1nnc(COc2ccccc2Cl)o1 (stereo not drawn),-3.35
18,COc1ccc(S(=O)(=O)N2CCOCC2)cc1NC(=O)CCCOc1ccc(Cl)cc1C,7.86
19,CCCCc1c(C)[nH]c2nc3ccccc3n2c1=O,-0.057
20,O=C1CCc2cc(S(=O)(=O)Nc3ccccc3)cc3c2N1CCC3,-6.16
21,Cc1nnc(SCc2nc3ccccc3s2)n1-c1ccccc1,2.82
22,CC(C)C(NC(=O)C12CC3CC(CC(C3)C1)C2)C(=O)N/N=C/C1=C(N2CCOCC2)C(=C\c2ccc([N+](=O)[O-])cc2)/CC1 (stereo not drawn),-5.32

row,Structure (SMILES),"hERG current change (%, negative = inhibition) at 10uM [%]"
1,CCOC(=O)C1CN(S(=O)(=O)c2ccc(OC)cc2)c2ccccc2O1 (stereo not drawn),10.2
2,Cc1cccc(-c2noc(CN(C)C(=O)COc3ccccc3)n2)c1,-43.4
3,Clc1ccc(OCCCn2cncn2)cc1Cl,-12.2
4,COc1ccc(S(=O)(=O)N2C(=O)/C(=C3\SC(N)=NC3=O)c3ccccc32)cc1,4.47
5,Cc1sc2ncnc(SCC(=O)Nc3ccc(CN4CCCC4)cc3)c2c1C,-72.6
6,CC1(C)CC(NC(=O)c2ccc(Cl)cc2)CC(C)(C)N1,-1.6
7,Cc1ccc(C(=O)C[n+]2cc(-c3ccccc3)n3c2CCCCC3)cc1.[Br-],-11.3
8,Cn1nc(C(F)(F)F)c(C#N)c1N1CCN(c2ccc(F)cc2)CC1,-21.6
9,CCOc1cc(CNC(C)C(O)c2ccccc2)cc(Cl)c1OCC.Cl (stereo not drawn),20.2
10,CCn1c(=O)c2cc(C(=O)NCCN(C)C)sc2c2ccccc21,10.8
11,O=C(Cn1ccc2ccccc2c1=O)NCCC(=O)Nc1ccc(F)cc1F,1.82
12,Cc1cc(C)c(C2=NOC(O)(C(F)(F)F)C2)c(=O)[nH]1 (stereo not drawn),4.8
13,O=[N+]([O-])c1cccc(C2=NC(c3ccccc3)CO2)c1 (stereo not drawn),-5.85
14,COc1ccc(Nc2cc(C)nc3ncnn23)c(OC)c1,12.9
15,Cc1sc2nc(CSc3nc4ccccc4s3)[nH]c(=O)c2c1C,-4.54
16,Cc1onc(-c2ccccc2Cl)c1C(=O)Nc1cccc(S(=O)(=O)NC2=NCCC2)c1,-18.6
17,Cc1cccc(C)c1NC(=O)CN(C)C(=O)CN1C(=O)NC2(CCCC2)C1=O,-8.96
18,O=C1CNC(=O)/C1=C/c1ccccc1,23.5
19,O=C(CSc1nncc2ccccc12)N1CCOCC1,2.33
20,Cc1cc(=O)[nH]c(N/N=C/c2cccc([N+](=O)[O-])c2)n1,-1.63
21,COc1ccc(CNc2ncnc3sccc23)cc1,-2.78
22,CCN1C(=O)[C@H]2[C@@H](c3ccc(-c4cccc(Cl)c4)c(OC)c3)N[C@@](Cc3ccccc3)(C(=O)OC)[C@H]2C1=O.O=C(O)C(F)(F)F,11.8

row,Structure (SMILES),"hERG current change (%, negative = inhibition) at 10uM [%]"
1,COc1ccc(C(CNC(=O)C(CCSC)NC(=O)c2ccccc2Cl)N2CCCCC2)cc1 (stereo not drawn),-25.5
2,CN1CCN(c2oc(-c3ccc([N+](=O)[O-])cc3)nc2C#N)CC1,-66.1
3,Cc1nonc1OCCn1c([N+](=O)[O-])cnc1C,4.77
4,CCN1C(=O)N(C(C)=O)C2C1N(C(C)=O)C(=O)N2C(C)=O (stereo not drawn),22
5,N#CC1=C(N)Oc2c(sc3ccccc23)C1c1ccco1 (stereo not drawn),-4.2
6,CC(C)n1nnc2c(=O)oc3ccccc3c21,11.2
7,COc1ccc(OC)c(-c2csc(N(CC3CCCO3)C(=O)C3CCCCC3)n2)c1 (stereo not drawn),11.6
8,Cc1cc(C(=O)COC(=O)C(C)NC(N)=O)c(C)n1Cc1ccco1 (stereo not drawn),10.5
9,CCOC(=O)CSc1n[nH]c(NC(=O)CC)n1,14.4
10,COc1ccc(NS(=O)(=O)c2ccc(S(=O)(=O)N(C)C)cc2)cc1S(N)(=O)=O,13.7
11,Cc1ccc(S(=O)(=O)N2CCN(Cc3cccnc3)CC2)cc1,-2.34
12,C/C(=N/NC(=O)c1ccccn1)c1c[nH]c2ccccc12,3.88
13,Cc1ccccc1NC(=O)CSc1nc2ncc(Cl)cc2[nH]1,18.6
14,Cc1ccc(-c2csc(NC(=O)COc3ccc(N(C)S(=O)(=O)c4ccc(C)cc4)cc3)n2)cc1,12.8
15,Nc1c(C(=O)c2ccccc2)sc(Nc2ccccc2)c1S(=O)(=O)c1ccccc1,-5.59
16,Cc1cccc(-c2cnn(-c3cccc([N+](=O)[O-])c3)c2N)c1,-14.6
17,Cc1cc(NC(=O)CSc2nnc(C3COc4ccccc4O3)o2)no1 (stereo not drawn),8.03
18,Cc1ccc2c(CC(=O)NCC3COc4ccccc4O3)coc2c1 (stereo not drawn),-7.79
19,CCCn1c2ccccc2c2nnc(SCC(=O)OC)nc21,-9.64
20,Cc1ccc(C)c(N2CCN(C(=O)C3CCN(S(=O)(=O)c4c(C)noc4C)CC3)CC2)c1,-0.446
21,Cc1ccc(C(c2sc3nc(C)nn3c2O)N2CCN(c3ccccc3)CC2)cc1 (stereo not drawn),-5.32
22,COc1ccc(C(O)c2nccc3cc(OC)c(OC)cc23)cc1OC (stereo not drawn),-2.43

row,Structure (SMILES),"hERG current change (%, negative = inhibition) at 10uM [%]"
1,O=C(O)c1ccccc1CSc1ncccc1C(=O)O,17.9
2,CCC(C)NC(=O)CSc1nc2c(sc3ccccc32)c(=O)n1CCCN1CCOCC1 (stereo not drawn),-53.4
3,O=S1(=O)C[C@@H](O)[C@@H](Nc2ccccc2)C1,13.8
4,O=C(CSc1nnc2scc(-c3ccc(Cl)cc3)n12)NCc1ccco1,-15.9
5,Cc1cc(C)cc(OCC(=O)Nc2nc(-c3cccnc3)cs2)c1,4.69
6,Cc1cc(Cl)ccc1OCc1nc(-c2ccc(O)cc2)n[nH]1,-13.7
7,O=C(c1cc2cc(Cl)ccc2[nH]1)N1CCN(c2ccccn2)CC1,4.56
8,CCOc1ncccc1C(=O)Nc1ccc(S(=O)(=O)N2CCCC2)cc1,22.9
9,Cc1ccccc1CC1(CO)CCCN(C(=O)c2cc(-c3ccccc3)no2)C1 (stereo not drawn),2.91
10,CC(NC(=O)CSc1ncccc1C(=O)O)C1CC2CCC1C2 (stereo not drawn),2.17
11,NC1=NC(=O)C(Cc2ccc(OC(F)(F)F)cc2)S1 (stereo not drawn),0.102
12,O=C(Nc1ccccc1N1CCN(C(=O)c2ccccc2)CC1)c1cccc(Cl)c1,-67.8
13,COc1ccc(-c2noc(CN(C)C(=O)c3ccc4c(c3)OCO4)n2)cc1OC,-4.61
14,Cn1c(SCC(=O)c2ccccc2)nnc1-c1ccco1,-39.5
15,COC(=O)CSc1c(-c2ccccc2)c2cc(Cl)ccc2[nH]c1=O,9.65
16,Fc1ccccc1CNc1nc(-c2cccnc2)nc2ccccc12,17.8
17,CCOC(=O)C1=C(CC)Nc2ccccc2N/C1=N\S(=O)(=O)c1ccc(C(=O)OCC)cc1,8.68
18,COc1ccccc1NC(=O)NCC1CC1(Cl)Cl (stereo not drawn),7.22
19,CC(NC(=O)COc1ccccc1)C(c1cccs1)N1CCCC1 (stereo not drawn),-2.64
20,C[C@H](NC(=O)c1nc[nH]c1C(=O)NC(c1ccccc1)c1ccccc1)C(=O)OCc1ccccc1,19.3
21,O=C(c1cccc(F)c1)N1CCN(c2ccc([N+](=O)[O-])c(N3CCCCC3)c2)CC1,-6.87
